Assay results as given in patent US20210340213A1.

Molecular target: CD80/CD86 on the surface of Raji cells
Assay: cell-based or functional assay

Row | IC50 on IL2 secretion, Test I [µg/mL] | IC50 on IL2 secretion, Test II [µg/mL] | IC50 on IL2 secretion, Test III [µg/mL] | Binder | further results
1 | 0.0728 | 0.117 | 0.0838 | CTLA4-Ig variant 75# (Fc fusion) MHVAQPAVVLASSRGIASFVCEYASPDKAKATEVRVTVLRQADSQVTEVCAATYMMGNELTFLDDSICTFTSSGNQVNLTIQGLRAMDTGLYICKVELMYPPPYYLGIGNGTQIYVIDPEPCPDSDQ[human IgG1 Fc with changes not given here] | 
2 |  | 0.695 |  | CTLA4-Ig variant 112# (Fc fusion) MHVAQPAVVLASSRGIASFVCEYASPDKAKATEVRVTVLRQTDSQVTEVCAATYMMGNELTFLDDSICTFTSSGNQVNLTIQGLRAMDTGLYICKVELMYPPPYYLGIGNGTQIYVIDSEPCPDSDQ[human IgG1 Fc with changes not given here] | 
3 |  |  | 0.0264 | CTLA4-Ig variant 133# (Fc fusion) MHVAQPAVVLASSRGIASFVCEYASPDKAKATEVRVTVLRQADSQVTEVCAATYMMGNELTFLDDSICTFTSSGNQVNLTIQGLRAMDTGLYICMVELMYPPPYYLGIGNGTQIYVIDPEPCPDSDQ[human IgG1 Fc with changes not given here] | 
4 |  |  | 0.0188 | CTLA4-Ig variant 142# (Fc fusion) MHVAQPAVVLASSRGIASFVCEYASPDKAKATEVRVTVLRQTDSQVTEVCAATYMMGNELTFLDDSICTFTSSGNQVNLTIQGLRAMDTGLYICMVELMYPPPYYLGIGNGTQIYVIDPEPCPDSDQ[human IgG1 Fc with changes not given here] | IC50 on IL2 secretion, Test IV: 0.00971 µg/mL
5 |  | 0.0825 | 0.0594 | CTLA4-Ig variant 131# (Fc fusion) MHVAQPAVVLASSRGIASFVCEYASPDKAKATEVRVTVLRQTDSQVTEVCAATYMMGNELTFLDDSICTFTSSGNQVNLTIQGLRAMDTGLYICKVELMYPPPYYLGIGNGTQIYVIDPEPCPDSDQ[human IgG1 Fc with changes not given here] | 
6 |  | 0.414 |  | CTLA4-Ig variant 118# (Fc fusion) MHVAQPAVVLASSRGIASFVCEYASPDKAKATEVRVTVLRQADSQVTEVCAATYMMGNELTFLDDSICTFTSSGNQVNLTIQGLRAMDTGLYICKVELMYPPPYYLGIGNGTQIYVIDSEPCPDSDQ[human IgG1 Fc with changes not given here] | 
7 | 0.665 |  |  | CTLA4-Ig variant 71# (Fc fusion) MHVAQPAVVLASSRGIASFVCEYASPDKAKATEVRVTVLRQADSQVTEVCAATYMMGNELTFLDDSICTGTSSGNQVNLTIQGLRAMDTGLYICKVELMYPPPYYLGIGNGTQIYVIDPEPCPDSDQ[human IgG1 Fc with changes not given here] | 
8 |  |  | 0.0989 | CTLA4-Ig variant 132# (Fc fusion) MHVAQPAVVLASSRGIASFVCEYESPHKANEIRVTVLRQANSQVTEVCAMTYMKGDELTFLDDPSCTGTFSGNQVNLTIQGLRAADTGLYICKVELMYPPPYYLGFGNGTQIYVIDPEPCPDSDQ[human IgG1 Fc with changes not given here] | 
9 | 1.67 |  |  | CTLA4-Ig variant 99# (Fc fusion) MHVAQPAVVLASSRGIASFVCEYASPDKATEVRVTVLRQADSQVTEVCAATYMMGNELTFLDDSICTFTSSGNQVNLTIQGLRAMDTGLYICKVELMYPPPYYLGIGNGTQIYVIDPEPCPDSDQ[human IgG1 Fc with changes not given here] | 
10 | 0.104 |  |  | CTLA4-Ig variant 95# (Fc fusion) MHVAQPAVVLASSRGIASFVCEYASPHKATEVRVTVLRQADSQVTEVCAATYMMGNELTFLDDSICTFTSSGNQVNLTIQGLRAMDTGLYICKVELMYPPPYYLGIGNGTQIYVIDPEPCPDSDQ[human IgG1 Fc with changes not given here] | 
11 |  | 0.141 |  | CTLA4-Ig variant 96# (Fc fusion) MHVAQPAVVLASSRGIASFVCEYASPDKKATEVRVTVLRQADSQVTEVCAATYMMGNELTFLDDSICTFTSSGNQVNLTIQGLRAMDTGLYICKVELMYPPPYYLGIGNGTQIYVIDPEPCPDSDQ[human IgG1 Fc with changes not given here] | 
12 |  |  | 0.0494 | CTLA4-Ig variant 134# (Fc fusion) MHVAQPAVVLASSRGIASFVCEYASPDKKATEVRVTVLRQADSQVTEVCAATYMMGNELTFLDDSICTFTSSGNQVNLTIQGLRAMDTGLYICMVELMYPPPYYLGIGNGTQIYVIDPEPCPDSDQ[human IgG1 Fc with changes not given here] | 
13 |  | 0.4 |  | CTLA4-Ig variant 122# (Fc fusion) MHVAQPAVVLASSRGIASFVCEYASPDKKATEVRVTVLRQADSQVTEVCAATYMMGNELTFLDDSICTFTSSGNQVNVTIQGLRAMDTGLYICKVELMYPPPYYLGIGNGTQIYVIDPEPCPDSDQ[human IgG1 Fc with changes not given here] | 
